# Assay results taken from article PMC4336329 (PLoS ONE, 2015).
# In all, about 310,000 compounds went through this assay and about 14,000 (4.5%) showed an effect of 50% or more. Effects have a minus sign here. The list shows a part of the results. Where a SMILES comes first, the peptide text is derived from it.
# Target: human ether-à-go-go-related gene (hERG) potassium channel (human, UniProt Q12809)
# Experiment: primary screen, population patch clamp on CHO cells stably expressing hERG
# 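Further: peak tail current of the secondary pulse compared with the same well before compound.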
# Sequence of human ether-à-go-go-related gene (hERG) potassium channel (Q12809 whole entry, looked up): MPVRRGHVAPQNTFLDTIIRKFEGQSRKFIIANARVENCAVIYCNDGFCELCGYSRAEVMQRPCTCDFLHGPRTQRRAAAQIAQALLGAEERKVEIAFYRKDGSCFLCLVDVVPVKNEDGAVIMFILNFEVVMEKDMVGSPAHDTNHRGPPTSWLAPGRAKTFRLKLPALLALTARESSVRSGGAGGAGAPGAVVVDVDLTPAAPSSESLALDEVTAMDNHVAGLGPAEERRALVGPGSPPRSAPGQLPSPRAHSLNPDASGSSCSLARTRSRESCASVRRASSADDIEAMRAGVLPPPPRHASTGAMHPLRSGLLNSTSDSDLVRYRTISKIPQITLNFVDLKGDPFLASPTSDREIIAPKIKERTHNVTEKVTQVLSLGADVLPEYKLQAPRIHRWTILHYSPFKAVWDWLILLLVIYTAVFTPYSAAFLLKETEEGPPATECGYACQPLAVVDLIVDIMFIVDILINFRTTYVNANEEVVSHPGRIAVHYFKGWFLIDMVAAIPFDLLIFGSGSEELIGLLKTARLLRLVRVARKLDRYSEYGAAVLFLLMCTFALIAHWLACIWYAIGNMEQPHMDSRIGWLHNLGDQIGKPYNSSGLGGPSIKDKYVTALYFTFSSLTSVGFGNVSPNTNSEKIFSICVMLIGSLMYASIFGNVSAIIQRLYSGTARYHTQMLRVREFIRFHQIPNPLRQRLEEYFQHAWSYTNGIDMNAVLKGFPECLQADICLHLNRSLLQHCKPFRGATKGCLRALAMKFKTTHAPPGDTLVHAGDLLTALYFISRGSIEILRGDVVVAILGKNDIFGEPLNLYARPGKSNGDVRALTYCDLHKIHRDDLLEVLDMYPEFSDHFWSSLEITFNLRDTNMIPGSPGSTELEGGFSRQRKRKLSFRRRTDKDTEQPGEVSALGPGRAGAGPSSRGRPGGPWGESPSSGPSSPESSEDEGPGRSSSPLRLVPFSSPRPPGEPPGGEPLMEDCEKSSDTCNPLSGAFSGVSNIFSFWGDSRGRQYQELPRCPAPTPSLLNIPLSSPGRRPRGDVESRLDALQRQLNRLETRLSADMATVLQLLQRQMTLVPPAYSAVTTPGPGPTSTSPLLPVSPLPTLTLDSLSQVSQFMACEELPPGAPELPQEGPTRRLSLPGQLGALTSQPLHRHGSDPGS
row,SMILES,"hERG current change (%, negative = inhibition) at 10uM [%]"
1,CCOC(=O)c1ccc(-n2cc(C(=O)c3cccnc3)nn2)cc1,19.4
2,CCc1ccc(NC(=O)CSCCN2C(=O)c3ccccc3C2=O)cc1,-14.6
3,CCOc1cc(NC(=O)c2cnccn2)c(OCC)cc1NC(=O)c1cccc(F)c1,1.09
4,O=S(=O)(c1cccc(-c2csc(-c3cccnc3)n2)c1)N1CCCCC1,-13
5,Fc1cccc(CCN2CCNC[C@H]2Cc2cccc3ccccc23)c1,-16.9
6,O=C(NCCO)/C(=C/c1cccc([N+](=O)[O-])c1)NC(=O)c1ccco1,26.5
7,Cc1ccc(NC(=O)C(CC(C)C)NC(N)=O)cc1Cl (stereo not drawn),-18
8,COc1ccc(-n2c(=S)[nH]c3sc(-c4ccccc4)cc3c2=O)c(OC)c1,-7.84
9,Cc1ccc(N(C)C2=NC(=O)CS2)cc1Cl,10.5
10,O=C(CCc1ccccc1)N=C1SC2CS(=O)(=O)CC2N1Cc1ccccc1 (stereo not drawn),16
11,Cc1ccc(NC(=O)CN2C(=O)S/C(=C\c3ccccn3)C2=O)cc1,23.3
12,CCOc1ccccc1-n1nnnc1SCC(=O)NCc1ccco1,5.25
13,c1ccc(OCC2CO2)cc1 (stereo not drawn),18.1
14,CNC1(c2nnnn2-c2c(C)cccc2C)CCOC(C)(C)C1 (stereo not drawn),8.99
15,O=C(CCc1ccccc1)Nc1nccs1,14.9
16,CS(=O)(=O)N1N=C(c2cccs2)CC1c1ccco1 (stereo not drawn),-4.01
17,CN1CCN(C(=S)Nc2ccc(Cl)cc2)CC1,5.64
18,O=c1cc(N2CCCCC2)c(-c2ccccc2)nn1Cc1ccc(Cl)cc1,-1.99
19,CC(NS(=O)(=O)c1ccc(OCC(=O)N2CCCC2)cc1)c1ccccc1 (stereo not drawn),2.97
20,CCN(CC)S(=O)(=O)c1cc([N+](=O)[O-])ccc1NNC(=O)Nc1ccc(Cl)c(Cl)c1,13
21,COC(=O)c1ccc(C2c3c(oc4cc(C)c(C)cc4c3=O)C(=O)N2CCCN(C)C)cc1 (stereo not drawn),-5.61
22,O=C(CCC1CCN(C(=O)Cc2c(F)cccc2F)CC1)NC1CC1,11.9

row,SMILES,"hERG current change (%, negative = inhibition) at 10uM [%]"
1,COc1ccc(C(=S)N2CCN(S(=O)(=O)c3ccccc3)CC2)cc1,-5.63
2,CC(C)N(C(=S)Nc1cc(S(=O)(=O)N2CCOCC2)ccc1Cl)c1ccccc1,-14
3,Cc1cc(C)n2cc(CSCc3ccccc3)nc2n1,-36.9
4,COc1ccc(C)cc1NS(=O)(=O)c1ccc2c(c1)n(C)c(=O)n2C,-10.8
5,COc1ccccc1N1CCN(c2cc(=O)n(Cc3ccc(F)cc3)c(=O)[nH]2)CC1,9.47
6,Cc1ccc(S(=O)(=O)N2CCN(C)CC2)c(C)c1,11.8
7,COc1ccc(N/N=C(/C#N)S(=O)(=O)c2nsc(C)c2C#N)cc1,-5.1
8,CC(C)n1c(NCc2c[nH]c3ccccc23)nc2ccccc21,-25.6
9,CCCCCCC1CC(CC(=O)Nc2ccc([N+](=O)[O-])cc2)C(=O)O1 (stereo not drawn),-12.4
10,COc1cc(NC(=S)NCCc2ccccc2)c(OC)cc1NC(=O)CC(C)C,20.4
11,CC(=O)NC(CC(C)C)C(=O)NC(CO)C(=O)NC(CCC(=O)O)C(=O)NC(C)C(=O)NC(CC(C)C)C(N)=O.O=C(O)C(F)(F)F (stereo not drawn) (Ac-LSEAL-NH2; configuration not given here),10.2
12,CCOC(=O)NNS(=O)(=O)c1cc(Br)ccc1Br,6.21
13,CCNc1nc(NCC)nc(N/N=C/c2ccc(O)c(OC)c2)n1,3.51
14,NC(=O)c1ccccc1NC(=O)CC12CC3CC(CC(Br)(C3)C1)C2,16.9
15,COc1ccc(NC(=S)NC2CCCCC2)cn1,17.2
16,O=C(Nc1cc(S(=O)(=O)Nc2ccc(Cl)cc2)ccc1O)c1ccc(S(=O)(=O)N2CCCCCC2)cc1,15.5
17,CN(C(=O)C12CC3CC(CC(C3)C1)C2)C1CCS(=O)(=O)C1 (stereo not drawn),21
18,Nc1nc2c(nc(N3CCCCC3)n2[C@@H]2O[C@H](CO)[C@@H](O)[C@H]2O)c(=O)[nH]1,10.1
19,COc1cccc(/C=N/NC(=O)C(=O)NCc2cccnc2)c1,8.3
20,CCCCCCCN1C2=NCCN2c2ccccc21.Cl,-79.6
21,CC1CCN(S(=O)(=O)c2ccc(NC(=O)CCN3C(=O)c4ccccc4C3=O)cc2)CC1,-11.3
22,O=S(=O)(N/N=C\c1ccc2c(c1)OCO2)c1ccccc1,7.03

row,SMILES,"hERG current change (%, negative = inhibition) at 10uM [%]"
1,O=C(Cn1ccc2cc(S(=O)(=O)N3CCCC3)ccc21)NCc1ccco1,-5.95
2,CCN(c1ccc(OCC(=O)OCC(=O)Nc2ccc(F)c(F)c2F)cc1)S(=O)(=O)c1ccccc1,1.63
3,O=C(NCc1ccccc1)C(c1ccco1)N(C(=O)c1csnn1)c1ccccc1F (stereo not drawn),3.07
4,Nc1ncc(Br)cc1S(=O)(=O)NC1CCCCC1,-30.3
5,COc1ccc2c(COC(=O)CC3Sc4ccccc4NC3=O)cc(=O)oc2c1 (stereo not drawn),-44.1
6,CCn1c(=O)n(CC(=O)NCC2CCCO2)c(=O)c2c3c(sc21)CCCC3 (stereo not drawn),-4.82
7,CN(C(=O)Oc1ccc(C(C)(C)C)cc1)c1ccccc1,23.1
8,CCOc1cc(C2/C(=C(\O)c3cc(C)ccc3C)C(=O)C(=O)N2CCN(C)C)ccc1O (stereo not drawn),-1.08
9,Cc1ccc(S(=O)(=O)N(C)S(=O)(=O)c2ccc(C)cc2)cc1,-2.03
10,Cc1cc(C(=O)N/N=C/c2cc(Br)ccc2OC(=O)c2ccccc2Cl)n[nH]1,13.4
11,O=C1CC(C(=O)N2CCCc3ccccc32)CN1c1ccc(F)cc1 (stereo not drawn),-22.2
12,CCc1nnc(NC(=O)CSc2nc3cccnc3n2C2CCCCC2)s1,-23.3
13,Cc1cc(-c2ccccc2)nc2c(Br)c(C(=O)O)nn12,3.5
14,CCCn1c(Cc2ccccc2)nnc1SCC(=O)N1CCOCC1,16.7
15,O=C(O)CSc1nc2c(c(C(F)(F)F)n1)CCCC2,11.3
16,O=C(c1cccc(C(F)(F)F)c1)N1CCN(CCc2ccccc2)CC1,-47.8
17,C#CCOCCOCCOCCNc1nc(N2CCN(C(=O)[C@H](Cc3ccc(O)cc3)n3cc(C(N)CC(C)C)nn3)CC2)nc(N2CCN(C(=O)[C@H](CCC(=O)O)n3cc(C(N)[C@H](C)CC)nn3)CC2)n1.Cl (stereo partly drawn),12.5
18,CCc1ccc(CN(C)C(=O)c2cc(S(=O)(=O)N3CCOCC3)ccc2N2CCCC2)cc1,-50.1
19,N#CCSc1nc2c(cc1C#N)CCCC2,-12.2
20,O=c1[nH]c2ccc(Br)cc2c(-c2ccccc2)c1CN1CCOCC1,-65.7
21,CC(=O)Nc1cccc(NC(=O)COC(=O)C2CC3CCCC(C2)C3=O)c1 (stereo not drawn),22.6
22,Br.O=C(CN1C2=NCCN2c2ccccc21)c1ccc(Br)s1,-64.5

row,SMILES,"hERG current change (%, negative = inhibition) at 10uM [%]"
1,COc1ccc(CC(=O)N2CC(=O)N(CCc3ccccc3)C(=O)C2)cc1,-24.8
2,CC(=O)Nc1c(C)ccc2nsnc12,-4.08
3,CNc1oc(-c2ccc(C)cc2)nc1P(=O)(c1ccccc1)c1ccccc1,-1.88
4,CCOC(=O)C1(Cc2cccc(F)c2)CCN(C(=O)C2CCOCC2)CC1,-15
5,CCCC(NCC(=O)Nc1cc(S(=O)(=O)N2CCOCC2)ccc1OC)c1ccccc1 (stereo not drawn),-21.4
6,CC(C)(C)c1sc(N)nc1-c1ccccc1,4.66
7,CCN(CC)S(=O)(=O)c1ccc(Cl)c(NC(=O)COc2ccc(OC)cc2[N+](=O)[O-])c1,27.4
8,Nc1c(C(=O)CSc2nnc(Cc3ccccc3)o2)c(=O)[nH]c(=O)n1C1CC1,4.89
9,O=C(OCc1cncs1)c1cccs1,14.3
10,Cc1ccc(C)c(C(=O)COc2ccc(C)nc2[N+](=O)[O-])c1,6.8
11,NNC(=O)c1ccc(O)cc1,5.24
12,C=CCn1c(-c2ccccc2[N+](=O)[O-])n[nH]c1=S,17
13,Cc1oc2c(F)c(F)c(F)c(F)c2c1S(=O)(=O)Nc1cccc(C(F)(F)F)c1,-43.7
14,Cc1cc(NC(=O)CCC(=O)N(CCC(C)C)C(C(=O)NC2CCCC2)c2cccnc2)no1 (stereo not drawn),1.53
15,O=C(NCc1ccccc1)N1CCn2c(nc3ccccc32)C1,2.53
16,CCC(CC)C(=O)Nc1cc(OC)c(OC)cc1C(=O)O,2.98
17,CC(C(=O)N1CCN(Cc2ccccc2)CC1)n1ncn2cccc2c1=O (stereo not drawn),-4.84
18,CSc1ccccc1NC(=O)Nc1ccccc1,16.9
19,CN1C(=O)C(=Cc2ccccc2OCCOc2ccc([N+](=O)[O-])cc2)C(=O)N(C)C1=O,-44.7
20,COc1ccc(-n2c(=S)[nH]c3ccccc32)cc1,1.28
21,CCOc1ccc2c(c1)OC(c1ccc(OC)cc1)(C(F)(F)F)NC2=O (stereo not drawn),-4.4
